The values that follow come from a collection of fitness landscapes (doi:10.1126/science.1257360).

The other results are listed elsewhere or left out.

To fix the notation:
B1: PhoQ; a variant is named by its letters at X, in order, P23837 (parent)
chain: MKKLLRLFFPLSLRVRFLLATAAVVLVLSLAYGMVALIGYSVSFDKTTFRLLRGESNLFYTLAKWENNKLHVELPENIDKQSPTMTLIYDENGQLLWAQRDVPWLMKMIQPDWLKSNGFHEIEADVNDTSLLLSGDHSIQQQLQEVREDDDDAEMTHSVAVNVYPATSRMPKLTIVVVDTIPVELKSSYMVWSWFIYVLSANLLLVIPLLWVAAWWSLRPIEALAKEVRELEEHNRELLNPATTRELTSLVRNLNRLLKSERERYDKYRTTLTDLTHSLKTPLXXLQXXLRSLRSEKMSVSDAEPVMLEQISRISQQIGYYLHRASMRGGTLLSRELHPVAPLLDNLTSALNKVYQRKGVNISLDISPEISFVGEQNDFVEVMGNVLDNACKYCLEFVEISARQTDEHLYIVVEDDGPGIPLSKREVIFDRGQRVDTLRPGQGVGLAVAREITEQYEGKIVAGESMLGGARMEVIFGRQHSAPKDE

In this assay the parent is B1. In words: enrichment ratio after two sorts for PhoP signalling (ratio (wild type AVST 3.29)); higher = more functional. The settings on record: with PhoP (E. coli).
As to HNTY, the enrichment ratio was not above 0.25.

Consider AKGF, for which the enrichment ratio is not above 0.25.

Consider AWRG, for which the enrichment ratio is not above 0.25.

Turning to WSGD, the enrichment ratio was not above 0.25.

For RCAW, the enrichment ratio is not above 0.25.

With AKYM, the enrichment ratio is not above 0.25.

Regarding GFIE, the enrichment ratio is not above 0.25.

With TKFH, the enrichment ratio is not above 0.25.

As to AIIF, the enrichment ratio is not above 0.25.

With AIVE, the enrichment ratio was 12.3.

Regarding HMAD, the enrichment ratio was not above 0.25.

On to ECSV, for which the enrichment ratio was not above 0.25.

Consider NGPL, for which the enrichment ratio is not above 0.25.

YYRH: the enrichment ratio was not above 0.25.

Take TWLR: the enrichment ratio is not above 0.25.

Regarding SPKP, the enrichment ratio was not above 0.25.

For NTMP, the enrichment ratio is not above 0.25.

Take CVIN: the enrichment ratio is not above 0.25.

For the variant INCK, the enrichment ratio was not above 0.25.

Turning to HGDK, the enrichment ratio is not above 0.25.

For the variant YDAC, the enrichment ratio is not above 0.25.

Regarding GSTS, the enrichment ratio came to 0.817.

As for GLTS, the enrichment ratio was not above 0.25.

For the variant QGHI, the enrichment ratio was 10.9.

For NHRQ, the enrichment ratio was not above 0.25.

Consider VCGA, for which the enrichment ratio was not above 0.25.

VGIY: the enrichment ratio is not above 0.25.

Regarding RFGV, the enrichment ratio was not above 0.25.

On to VCRS, for which the enrichment ratio was not above 0.25.

On to NGPT, for which the enrichment ratio was not above 0.25.

For EKTA, the enrichment ratio was not above 0.25.

As to IHLL, the enrichment ratio is not above 0.25.

Consider NTPG, for which the enrichment ratio is not above 0.25.

In the case of YSHG, the enrichment ratio was not above 0.25.

As for EQGD, the enrichment ratio is not above 0.25.

On to RAPQ, for which the enrichment ratio is not above 0.25.

Regarding GSRN, the enrichment ratio is not above 0.25.

Take YFNF: the enrichment ratio was not above 0.25.

As to EKAI, the enrichment ratio was not above 0.25.

For FPNI, the enrichment ratio is not above 0.25.

Turning to DEHI, the enrichment ratio was not above 0.25.

As to PAGN, the enrichment ratio was not above 0.25.

As for QQCR, the enrichment ratio was not above 0.25.

For VQYV, the enrichment ratio was not above 0.25.

For IACS, the enrichment ratio is not above 0.25.

For the variant AVGH, the enrichment ratio stood at 7.76.

Take FSWC: the enrichment ratio is not above 0.25.

Take RTKA: the enrichment ratio was not above 0.25.

Regarding ETSL, the enrichment ratio was not above 0.25.

For the variant VHIL, the enrichment ratio was not above 0.25.

Take IKIK: the enrichment ratio is not above 0.25.

Take AGRL: the enrichment ratio is not above 0.25.

With LFKG, the enrichment ratio is not above 0.25.

Consider AMVQ, for which the enrichment ratio amounted to 13.1.

As for GLAI, the enrichment ratio worked out at 2.2.

On to RYPI, for which the enrichment ratio is not above 0.25.

Take WGTQ: the enrichment ratio is not above 0.25.

On to LGVQ, for which the enrichment ratio is not above 0.25.

Regarding ENVK, the enrichment ratio is not above 0.25.

As for NSMK, the enrichment ratio is not above 0.25.

Consider YHYA, for which the enrichment ratio is not above 0.25.

In the case of QYCC, the enrichment ratio was not above 0.25.

For the variant GRQT, the enrichment ratio was not above 0.25.

On to TCRT, for which the enrichment ratio was not above 0.25.

For the variant FMNA, the enrichment ratio was not above 0.25.

Take WMCM: the enrichment ratio was not above 0.25.

Take TYVN: the enrichment ratio is not above 0.25.

As for PICP, the enrichment ratio is not above 0.25.

As for IPPV, the enrichment ratio was not above 0.25.

RMCL: the enrichment ratio was not above 0.25.

With EFRP, the enrichment ratio is not above 0.25.

As for MMGR, the enrichment ratio is not above 0.25.

With DQQL, the enrichment ratio was not above 0.25.

As to TFML, the enrichment ratio was 5.46.

As to GNQG, the enrichment ratio is not above 0.25.

Take DNLT: the enrichment ratio is not above 0.25.

As for GITN, the enrichment ratio was not above 0.25.

For YRRS, the enrichment ratio is not above 0.25.

As to RLYF, the enrichment ratio is not above 0.25.

Regarding FIKA, the enrichment ratio is not above 0.25.

For the variant FHCY, the enrichment ratio was not above 0.25.

Take FVPT: the enrichment ratio was not above 0.25.

Turning to WDFG, the enrichment ratio is not above 0.25.

Regarding SMMA, the enrichment ratio was 4.7.

For the variant YRRL, the enrichment ratio is not above 0.25.

Consider VGAW, for which the enrichment ratio was not above 0.25.

Turning to WQKD, the enrichment ratio is not above 0.25.

Consider RLST, for which the enrichment ratio was not above 0.25.

For the variant GHFG, the enrichment ratio was not above 0.25.

On to RYEV, for which the enrichment ratio was not above 0.25.

Consider DMEA, for which the enrichment ratio was not above 0.25.

Turning to PEQN, the enrichment ratio was not above 0.25.

Consider VGWG, for which the enrichment ratio is not above 0.25.

As to IFCC, the enrichment ratio was not above 0.25.

Take QGMG: the enrichment ratio was not above 0.25.

In the case of LCYD, the enrichment ratio is not above 0.25.

On to GECT, for which the enrichment ratio stood at 8.88.

In the case of WNMP, the enrichment ratio is not above 0.25.

For the variant YASW, the enrichment ratio is not above 0.25.

As to HSQH, the enrichment ratio is not above 0.25.

Consider DDKP, for which the enrichment ratio was not above 0.25.

Turning to AFMQ, the enrichment ratio was not above 0.25.

For GQCS, the enrichment ratio was determined as 4.33.

Turning to FEQI, the enrichment ratio is not above 0.25.

As to RHAT, the enrichment ratio is not above 0.25.

Take WTLE: the enrichment ratio was not above 0.25.

With DKAK, the enrichment ratio was not above 0.25.

For PYKV, the enrichment ratio is not above 0.25.

Regarding ACWK, the enrichment ratio was not above 0.25.

For the variant FYWN, the enrichment ratio was not above 0.25.

On to GPLC, for which the enrichment ratio is not above 0.25.

For the variant VTGA, the enrichment ratio was not above 0.25.

For HVCW, the enrichment ratio is not above 0.25.

Turning to QDKY, the enrichment ratio was not above 0.25.

RHGN: the enrichment ratio is not above 0.25.

As to IDAD, the enrichment ratio is not above 0.25.

As for QNCN, the enrichment ratio was not above 0.25.

For NGWV, the enrichment ratio is not above 0.25.

DTAS: the enrichment ratio was not above 0.25.

Consider VFEE, for which the enrichment ratio is not above 0.25.

Regarding VKQN, the enrichment ratio is not above 0.25.

In the case of HHGS, the enrichment ratio is not above 0.25.

RSIP: the enrichment ratio was not above 0.25.

Turning to NHLE, the enrichment ratio was not above 0.25.

In the case of QQEV, the enrichment ratio was not above 0.25.

FGVN: the enrichment ratio is not above 0.25.

Turning to MLSR, the enrichment ratio was not above 0.25.

HAKG: the enrichment ratio is not above 0.25.

Take INIV: the enrichment ratio is not above 0.25.

In the case of GRND, the enrichment ratio was not above 0.25.

With SYQC, the enrichment ratio was not above 0.25.

In the case of STLM, the enrichment ratio amounted to 11.2.

In the case of WAYP, the enrichment ratio was not above 0.25.

Regarding RRAD, the enrichment ratio was not above 0.25.

As for REGL, the enrichment ratio was not above 0.25.

As for REDL, the enrichment ratio is not above 0.25.

Regarding KDHV, the enrichment ratio is not above 0.25.

WFQS: the enrichment ratio was not above 0.25.

In the case of TLYC, the enrichment ratio is not above 0.25.

PEPN: the enrichment ratio is not above 0.25.

As to HNNF, the enrichment ratio is not above 0.25.

RVKQ: the enrichment ratio was not above 0.25.

Consider YEAN, for which the enrichment ratio is not above 0.25.

With DPWC, the enrichment ratio is not above 0.25.

In the case of SFSS, the enrichment ratio is not above 0.25.

With KAGP, the enrichment ratio was not above 0.25.

Take IDGW: the enrichment ratio was not above 0.25.

With ENMD, the enrichment ratio is not above 0.25.

Consider FSFW, for which the enrichment ratio was not above 0.25.

Take TCVF: the enrichment ratio was not above 0.25.

Consider TFYD, for which the enrichment ratio was not above 0.25.

SAHE: the enrichment ratio was not above 0.25.

For the variant DVNQ, the enrichment ratio was not above 0.25.
